# Measured values taken from ChEMBL document CHEMBL3301361, “Experimental in vitro DMPK and physicochemical data on a set of publicly disclosed compounds”.
# Key:
# [1] = physchem; conditions: pH 7.4 buffer
# [2] = physchem; conditions: octan-1-ol/water
SMILES,"logD ([2]; pH 7.4, LogD7.4)",also measured
CCC(CC)CNC(=O)c1ccc2c(c1)c(Cc1ccc(C(=O)NS(=O)(=O)c3ccccc3C)cc1OC)cn2C,,solubility thermodynamic [1]: 95.5 µM
O=C(Nc1ccccc1)c1ccccc1 [N-PHENYLBENZAMIDE],2.8,
O=C(N[C@@H](Cc1ccc(OCCc2ccc3c(n2)NCCO3)cc1)C(=O)O)c1c(Cl)cccc1Cl,,solubility thermodynamic [1]: 1410 µM
O=C(Nc1cccc(O)c1)c1ccc(OCCCN2CCCC2)cc1OCc1cccc(F)c1,3.15,
CC(C)n1c(=O)n(C)c(=O)c2cn(Cc3cccc4ccccc34)cc21,,solubility thermodynamic [1]: 23.4 µM
CCn1c(-c2ccnc(Nc3ccc(C(=O)NC)cc3)n2)cnc1C,2.53,
CC(O)(C(=O)Nc1ccc2c(c1)-c1ccccc1S2(=O)=O)C(F)(F)F (centres undefined),3,
COc1cc2ncnc(Nc3cccc(Cl)c3F)c2cc1OC1CCN(S(C)(=O)=O)CC1,2.82,
CCOc1ccc2oc(C(=O)NC(CCSC)c3nc4ncccc4[nH]3)c(C)c2c1 (centres undefined),4.23,
O=C(CSc1ccncc1)Nc1ccc(C(=O)c2ccccc2)cc1,3.6,
C[C@H](CO)Nc1nc(SCc2cccc(F)c2F)nc2[nH]c(=O)c(=O)[nH]c12,,solubility thermodynamic [1]: 61.7 µM
Nc1nc2ccc(OC(F)(F)F)cc2s1 [RILUZOLE],3.34,
COCCS(=O)(=O)N1CCN(c2ccc(Nc3nccc(-c4cnc(C)n4C(C)C)n3)cc2)CC1,,solubility thermodynamic [1]: 14.1 µM
O=C(Nc1ccc(N2CCOCC2)nc1)c1nnc(Nc2cccc(OCc3cccnc3)c2)o1,,solubility thermodynamic [1]: 4.6 µM
Cc1ccc(NC(=O)c2cccc(N(C)S(C)(=O)=O)c2)cc1NC(=O)c1ccc2ncccc2c1,2.8,
CCNC(=O)C[C@H]1N=C(c2ccc(Cl)cc2)c2cc(OC)ccc2-n2c(C)nnc21,,logD ([2]; pH 7.4): 2.42
C[C@@H](CO)Oc1cc(Oc2ccc(S(C)(=O)=O)cc2)cc(C(=O)Nc2nccs2)c1,2.63,
Cc1ccc(NC(=O)c2cscn2)cc1-n1cnc2ccc(N3CCN(C)CC3)cc2c1=O,2.06,
CCNC(=O)C[C@@H]1N=C(c2ccc(Cl)cc2)c2cc(OC)ccc2-n2c(C)nnc21 [MOLIBRESIB],,logD ([2]; pH 7.4): 2.46
Nc1ccccc1NC(=O)c1ccc(-c2ncc(CN3CCCCC3)s2)cc1,2.82,
CCN(C(=O)Cc1ccc(S(C)(=O)=O)cc1)C1CCN(CCC(c2ccccc2)c2ccc(NC(=O)Cc3ccccc3)cc2)CC1 (centres undefined),,solubility thermodynamic [1]: 2.8 µM
O=C(CCc1ccccc1)c1ccccc1,,solubility thermodynamic [1]: 9.8 µM
Cc1c(C(=O)NC2C3CC4CC(C3)CC2C4)cnn1-c1ccc(C(=O)O)cc1 (centres undefined),,solubility thermodynamic [1]: 1200 µM
O=C(NC1Cc2ccccc2N(CC(CO)CO)C1=O)c1cc2cc(Cl)sc2[nH]1 (centres undefined),3.56,
CN(C)C(=O)[C@H](Cc1ccccc1)NC(=O)c1cc2ccccc2[nH]1,3.4,

SMILES,"logD ([2]; pH 7.4, LogD7.4)",also measured
N#Cc1cnn(-c2ccccc2)c1NC(=O)c1ccccc1F,1.7,
COc1cc(N2CC3CN(CCO)CC(C2)O3)ccc1Nc1ncc(Cl)c(-c2cnc3ccccn23)n1,,solubility thermodynamic [1]: 5.1 µM
O=C(O)c1ccc(NC(=O)c2cc(OCc3ccccc3)cc(OCc3ccccc3)c2)nc1,2.7,
Cc1ncc(-c2nc(Nc3ccc(C(N)=O)cc3)ncc2F)n1C(C)C,2.7,
CS(=O)(=O)c1ccc([C@@H](C[C@H]2CCC(=O)C2)C(=O)Nc2cnccn2)cc1Cl [PIRAGLIATIN],1.39,
CN(C(=O)Cc1ccc(S(N)(=O)=O)cc1)C1CCN(CCC(c2ccccc2)c2ccccc2)CC1,2.3,
O=C(NC1CCS(=O)(=O)C1)c1ccc(Oc2ccc(C#C[C@]3(O)CN4CCC3CC4)cc2)cc1 (some centres undefined),,logD ([2]; pH 7.4): 1.64
COc1cc(-c2nc(N3CCOCC3)cc(C3(S(C)(=O)=O)CC3)n2)c2cc[nH]c2c1,2.4,
N#CCNC(=O)[C@@H]1CCCC[C@H]1C(=O)N1CCc2[nH]c3ccc(F)cc3c2C1,2.77,
Cc1onc(C(N)=O)c1C(=O)Nc1nccs1,1.63,
COc1cc(C(=O)O)ccc1Cc1cn(C)c2ccc(NC(=O)CC3CCCC3)cc12,2,
CN(C)CC(O)COc1ccc(Nc2nccc(Nc3ccc(Cl)cc3)n2)cc1 (centres undefined),2.6,
N#Cc1c(C(=O)O)n(Cc2ccc(Cl)c(Cl)c2)c2ccccc12,1.26,
CN(C)C(=O)[C@H](Cc1ccccc1)NC(=O)c1cc2ccsc2[nH]1,3.1,
CN1CCN(S(=O)(=O)c2ccc(-c3cnc(N)c(C(=O)Nc4cnccc4CN4CCCC4)n3)cc2)CC1,3.28,
Cc1cc(C)cc(-c2[nH]c3ccccc3c2CCNCCCCc2ccncc2)c1,3.3,
Cc1ncc(-c2ccnc(Nc3ccc(C(=O)N(C)C)c(F)c3)n2)n1C(C)C,2.74,
CS(=O)(=O)n1c2ccccc2c2cc(NC(=O)N3CCOCC3)ccc21,2.7,
NC(=O)c1cc(-c2ccccc2)sc1N,2.7,
C[C@@H]1CN(Cc2ccc(F)cc2)CCN1C(=O)COc1ccc(Cl)cc1NC(N)=O [BX 471 FREE BASE],,logD ([2]; pH 7.4): 1.91
O=C(N[C@@H](Cc1ccc(OCCCNc2ccccn2)cc1)C(=O)O)c1c(Cl)cccc1Cl,-0.22,
O=C(NC1Cc2ccccc2N(C[C@@H](O)CO)C1=O)c1cc2cc(Cl)ccc2[nH]1 (some centres undefined),3.4,
COc1ccc(C(=O)Nc2c(Cl)cncc2Cl)c2cccnc12,2.09,
CCN(C(=O)Cc1ccc(S(C)(=O)=O)cc1)C1CCN(CCC(c2ccc(F)cc2)c2ccc(F)cc2)CC1,3.21,
Nc1ncc(-c2cnn(C3CCOCC3)c2)cc1-c1nc2ccccc2o1,4,

SMILES,"logD ([2]; pH 7.4, LogD7.4)",also measured
O=C(O)c1cc2cc(C(F)(F)F)ccc2n1Cc1ccc(Cl)c(Cl)c1,,logD ([2]; pH 7.4): 3.07
NC(=O)Nc1sc(-c2ccccc2)cc1C(=O)N1CCOCC1,2.24,
NC(=O)CN1C(=O)C(NC(=O)c2cc3cc(Cl)sc3[nH]2)Cc2ccccc21 (centres undefined),3.22,
c1ccc(N2CC3COc4ccccc4C3=N2)cc1 (centres undefined),4.28,
COCCC(Oc1ncnc2c1cnn2-c1ccccc1C(F)(F)F)C(=O)Nc1ccc(C)cn1 (centres undefined),3.5,
O=C(O)c1cc2cc([N+](=O)[O-])ccc2n1Cc1ccc(Cl)c(Cl)c1,1.79,
Cc1csc(NC(=O)c2cc(Sc3nncn3C)ccc2N)n1,2.3,
O=C(CN1CCOCC1)Nc1ccc(-c2cccc3c(=O)cc(N4CCOCC4)oc23)cc1-c1ccccc1,3.4,
Oc1cc(-c2ccco2)nc2ccccc12,2.21,
COc1cc2c(Nc3ccc(Cl)cc3F)ncnc2cc1OC[C@@H]1CCCN(C)C1,2.9,
Cc1cc2n[nH]c(=O)n2c2ccccc12,2.35,
COc1cc2ncc(C(N)=O)c(Nc3ccc(F)cc3F)c2cc1NCCN1CCCCC1,2.52,
Nc1ccc(C(=O)Nc2cccc(-c3nc(N4CCOCC4)c4oc5ncccc5c4n3)c2)cn1,3.44,
CCOC(=O)c1ccc(CCN2CCN(c3ccc(C)nn3)CC2)cc1,,logD ([2]; pH 7.4): 2.58
COc1cc2c(cc1OC)C(=O)C(CC1CCN(Cc3ccccc3)CC1)C2 (centres undefined) [DONEPEZIL],2.41,
CNS(=O)(=O)c1ccc(Nc2nccc(-c3cnc4cccnn34)n2)cc1,2.8,
Nc1n[nH]c2ncc3c(c12)CCCCCC3,2.54,
CCn1c2ccccc2c2cc(NC(=O)C(C)C)ccc21,4.2,
CCNC(=O)c1ccc(CN2CCC(c3ccc(C(=O)Nc4ccccc4N)cc3)CC2)cc1,2.24,
CCN(C(=O)Cc1ccc(S(N)(=O)=O)cc1)C1CCN(CCC(c2ccccc2)c2ccccc2)CC1,2.4,
CC(C)n1c2ccccc2c2cc(NC(=O)N3CCOCC3)ccc21,3.55,
NC(=O)c1sc(-c2ccc(Cl)cc2)cc1N,3.3,
CCOC(=O)c1ccc(OCCC2CCN(c3ccc(C)nn3)CC2)cn1,2.63,
CCOC(=O)c1ccc(OCCC2CCN(c3ccc(C)nn3)CC2)nc1,3.76,
